Hit rate of the full screen: of about 220,000 compounds, about 16,000 (7.3%) were called active. The shares of active, inactive and inconclusive entries below differ from those in the screen. The call rests on the fitted dose curve; in most records, active means well fitted inhibition curve with a large enough effect (not every such curve was filed as active); inconclusive means small, poorly fitted or top-dose-only effect, or another doubt; inactive means no such curve, though single readings can be large or run the other way. No potency is given beside an inconclusive call; the fits are too rough.
The compounds below were run against Aldehyde dehydrogenase 1A1 (Homo sapiens) (UniProt P00352) (assay: qHTS Assay for Inhibitors of Aldehyde Dehydrogenase 1 (ALDH1A1)). Conditions: Purified ALDH1A1, NADH fluorescence, propionaldehyde substrate; series mostly up to 75.3 µM; activity, negative = inhibition: at the top concentration.
Potency means the concentration at half of the fitted maximal effect; tags describe the fitted curve by direction and shape.
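Wherever activity, negative = inhibition is given: plate controls were no enzyme wells and a reference inhibitor.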

UniProt P00352, sequence (P00352 whole entry, looked up): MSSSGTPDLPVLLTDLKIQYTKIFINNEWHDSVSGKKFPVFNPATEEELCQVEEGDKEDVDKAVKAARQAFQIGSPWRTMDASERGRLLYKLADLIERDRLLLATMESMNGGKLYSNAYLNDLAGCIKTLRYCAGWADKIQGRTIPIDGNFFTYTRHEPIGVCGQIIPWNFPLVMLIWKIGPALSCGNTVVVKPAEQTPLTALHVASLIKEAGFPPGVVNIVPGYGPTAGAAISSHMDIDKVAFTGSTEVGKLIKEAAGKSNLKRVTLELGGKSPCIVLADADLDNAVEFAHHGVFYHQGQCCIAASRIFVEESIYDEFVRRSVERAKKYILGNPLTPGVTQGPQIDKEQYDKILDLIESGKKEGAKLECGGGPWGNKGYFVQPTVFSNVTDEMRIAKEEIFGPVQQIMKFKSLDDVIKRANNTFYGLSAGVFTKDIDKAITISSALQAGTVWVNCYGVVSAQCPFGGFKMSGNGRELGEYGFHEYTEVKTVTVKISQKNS

| Structure (SMILES) | activity, negative = inhibition | Potency |
| --- | --- | --- |
| CCOC(=O)N1CCN(C(=O)c2ccc(Oc3ccc([N+](=O)[O-])cc3)cc2)CC1 | inactive: -3.71% | – |
| CCOC(=O)c1cc2c(=O)n3cccc(C)c3nc2n(C)c1=N | – | inconclusive [inhibitor, partial curve] |
| CSc1sc(C)cc1C=O | – | inconclusive [inhibitor, single point] |
| Cc1ccc(-c2noc(-c3ccccc3C(=O)NCC3CCCO3)n2)cc1 (centres undefined) | – | inconclusive [inhibitor, single point] |
| Cc1nnc(NC(=O)CCCCCN2C(=O)C3C4C=CC(C4)C3C2=O)s1 (centres undefined) | – | inconclusive [inhibitor, single point] |
| COc1ccc(N(CC(=O)Nc2ccccc2C(=O)NCCc2ccccc2)S(C)(=O)=O)cc1OC | – | inconclusive [inhibitor, single point] |
| CC(C)CCn1cnc2c(cnn2-c2ccc(F)cc2)c1=O | – | inconclusive [inhibitor, single point] |
| Cc1ccc(/C=C2/C(=O)c3ccc(C(=O)O)cc3C2=O)o1 | – | active: 7.08 µM |
| CCC(=O)NC(=S)Nc1ccc(NC(=S)NC(=O)c2ccc(C)cc2)cc1 | inactive: -9.56% | – |
| Cc1ccc(SCCNC(=S)Nc2ccc(C)c(C)c2)cc1 | – | inconclusive [inhibitor, partial curve] |
| CCN(CC)C(=O)Cn1cc(S(=O)(=O)CC(=O)N2CCCCCC2)c2ccccc21 | – | inconclusive [inhibitor, single point] |
| Cc1ccccc1CNC(=O)c1cc(COc2ccc(F)cc2F)on1 | – | inconclusive [inhibitor, single point] |
| Cn1c(=O)c2cc(S(=O)(=O)NC(C(=O)Nc3cccc(F)c3)c3ccccc3)ccc2n(C)c1=O (centres undefined) | – | inconclusive [inhibitor, single point] |
| Cc1ccc(C(=O)NCCc2csc(-c3cccnc3)n2)cc1 | – | inconclusive [inhibitor, single point] |
| CCc1nnc(NS(=O)(=O)c2ccc(NC(=S)NC(=O)c3cccs3)cc2)s1 | – | active: 25.1 µM |
| COC(=O)c1c(NC(=O)/C=C/C(=O)O)sc(C)c1-c1ccc(C)c(C)c1 | – | inconclusive [inhibitor, single point] |
| CC(C)c1nnc(NC(=O)Cc2ccc(Br)cc2)s1 | – | inconclusive [inhibitor, single point] |
| CCN(CC)c1ccc(/C=N/NC(=O)CC(C)C)cc1 | – | inconclusive [inhibitor, single point] |
| Cc1ccc(C(=O)N/C(=C\c2ccc(C(C)C)cc2)C(=O)NCCCN2CCOCC2)cc1 | – | inconclusive [inhibitor, single point] |
| COc1cc(C(=O)Nc2ccc(-c3nnc(-c4ccco4)o3)cc2)cc(OC)c1OC | – | inconclusive [inhibitor, single point] |
| CCN(CC)NC(=S)Nc1ccccc1 | inactive: 2.07% | – |
| O=C(Nc1cc(Sc2nc3ccccc3s2)cc([N+](=O)[O-])c1)c1ccccc1 | inactive: 13.4% | – |
| Cc1c(C(=O)NCc2ccc3c(c2)OCO3)oc2ccc(S(=O)(=O)N3CCCC3)cc12 | – | inconclusive [inhibitor, single point] |
| Clc1ccc(-c2nn3c(-c4ccccc4)nnc3s2)cc1 | – | inconclusive [inhibitor, partial curve] |
| CN(C(=O)c1ccc2c(c1)OCO2)C1(C(=O)NC2CCCCC2)CCCCC1 | – | inconclusive [inhibitor, partial curve] |

| Structure (SMILES) | activity, negative = inhibition | Potency |
| --- | --- | --- |
| Cc1cc(C(=O)N/N=C/C=C/c2ccc3c(c2)OCO3)n[nH]1 | – | inconclusive [inhibitor, partial curve] |
| Cc1cc(C)c(C(=O)N2CCCC(C(=O)c3cc(F)ccc3F)C2)o1 (centres undefined) | – | inconclusive [inhibitor, single point] |
| CC(=NC1CCCCC1)C1=C(O)c2ccccc2C1=O | – | inconclusive [inhibitor, single point] |
| CN(C)c1ccnc(Oc2ccc(C(C)(C)C)cc2)c1C#N | – | inconclusive [inhibitor, partial curve] |
| CC(=O)C1=NN(c2ccccc2)C(c2cccs2)N1c1ccccc1 (centres undefined) | – | inconclusive [inhibitor, single point] |
| COc1cccc(CC(=O)n2nc(N)c3cc4ccc(OC)cc4nc32)c1 | inactive: 0.602% | – |
| Cc1c(Cl)cnc(NC(=O)COC(=O)CCc2nc3ccccc3s2)c1Cl | inactive: 4.99% | – |
| Cc1ccc(C2N(c3ccc(Cl)c(Cl)c3)C(=O)C3CCCN32)o1 (centres undefined) | – | inconclusive [inhibitor, partial curve] |
| Cc1c(Br)c([N+](=O)[O-])nn1CC(=O)c1ccccc1 | inactive: 5.28% | – |
| COc1cccc(-c2cc(C(F)(F)F)nc(-n3cccn3)n2)c1 | – | inconclusive [inhibitor, single point] |
| Cc1ccc(C(=O)Nc2ccc(C)c(S(=O)(=O)N(C)C)c2)s1 | – | inconclusive [inhibitor, single point] |
| O=C(NCCN1CCOCC1)c1sc2ccccc2c1Cl | inactive: 6.95% | – |
| C/C(=N\NC(=O)c1sccc1-n1cccc1)c1cccs1 | inactive: -2.64% | – |
| CCOc1c2ccc(C(=O)NCc3ccc(OC(F)(F)F)cc3)cc2nn1C | – | active: 3.16 µM |
| CC(C)N(C(=O)CSc1nc2ccccc2n1-c1ccccc1)C(C)C | – | inconclusive [inhibitor, single point] |
| COc1ccc2nc3oc(C(=O)N4CCN(c5cccc(Cl)c5)CC4)cc3cc2c1 | inactive: 178% | – |
| CN(C)C(=S)N=Nc1[nH]c2ccccc2c1O | – | inconclusive [inhibitor, single point] |
| CN(C)/C=C1\NC(=S)N(c2ccc(Cl)cc2)C1=O | – | active: 20 µM |
| Cc1ccccc1NC(=S)N/N=C1\CC(C)(C)Oc2ccc(O)cc21 | – | inconclusive [inhibitor, partial curve] |
| O=C(c1cc2nc(-c3ccc(Cl)cc3)cc(C(F)(F)F)n2n1)N1CCOCC1 | inactive: 11.5% | – |
| COc1cc(N2CCCC2)c(OC)cc1/C=C(/C#N)c1cccc(F)c1 | – | inconclusive [inhibitor, partial curve] |
| Cc1cccc(C(=O)Nc2nnc(SCC(=O)Nc3ccc4c(c3)oc3ccccc34)s2)c1 | inactive: -14.8% | – |
| CC(=O)CC(=O)Nc1ncc(C(F)(F)F)cc1Cl | – | inconclusive [inhibitor, single point] |
| CCN1CCN(C(c2ccccc2)c2nnnn2Cc2ccc(OC)cc2)CC1 (centres undefined) | – | inconclusive [inhibitor, single point] |
| COc1ccc2c(c1)CCc1cc(C(=O)N3CCN(c4ccc(N5CCOCC5)nn4)CC3)sc1-2 | – | inconclusive [inhibitor, partial curve] |

| Structure (SMILES) | activity, negative = inhibition | Potency |
| --- | --- | --- |
| Cc1ccc(C(=O)NNC2CC(=O)N(c3ccc4c(c3)OCCO4)C2=O)cc1 (centres undefined) | – | inconclusive [inhibitor, single point] |
| CC1CCc2ccccc2N1C(=O)c1cccs1 (centres undefined) | inactive: 1.77% | – |
| Cc1cccc(OCC(=O)Nc2nnc(-c3ccco3)s2)c1 | – | active: 31.6 µM |
| O=C(CSc1ncn[nH]1)Nc1nnc(-c2ccccc2)s1 | – | active: 28.2 µM |
| CCOc1cc(N2CCOCC2)c(OCC)cc1NC(=O)Cc1ccccc1OC | – | inconclusive [inhibitor, single point] |
| O=C(Cc1ccccc1)Nc1ccccc1C(=O)O | – | inconclusive [inhibitor, partial curve] |
| Cn1c(N)c(C(=O)COC(=O)c2cnc(Cl)c(Cl)c2)c(=O)n(C)c1=O | – | active: 8.91 µM |
| COc1cccc(NC(=O)c2ccc3c(SCC(=O)O)c4c(nc3c2)CCCC4)c1 | – | inconclusive [inhibitor, partial curve] |
| COCCOC(=O)c1cc(C(=O)c2cc(Cl)ccc2O)coc1=N | inactive: 11.2% | – |
| COc1ccccc1OCc1ccc(C(=O)N2N=C(C(F)F)CC2(O)C(F)F)o1 (centres undefined) | inactive: 4.92% | – |
| O=C(NNc1c2ccccc2nc2ccccc12)c1ccc(O)cc1 | inactive: 2.09% | – |
| COC(=O)c1sc(NC(=O)c2c(OC)cccc2OC)c(C#N)c1C | – | inconclusive [inhibitor, single point] |
| O=C(Nc1ccc2c(c1)C(=O)N(CC1CCCO1)C2=O)c1ccc(Cl)c(Cl)c1 (centres undefined) | – | inconclusive [inhibitor, partial curve] |
| NC(N)=N/N=C/c1cccc([N+](=O)[O-])c1O | inactive: -0.795% | – |
| O=C(C[n+]1ccccc1)N/N=C/c1ccc(F)cc1 | inactive: 17.8% | – |
| CCN(CC)CCNCC(O)(c1ccc(Cl)cc1)c1ccc(Cl)cc1 | inactive: -3.21% | – |
| COc1ccc(CC(=O)NNC(=O)CCc2ccccc2)cc1 | inactive: 5.34% | – |
| CCOC(=O)c1nnn(-c2nonc2OC)c1-c1ccccc1 | – | inconclusive [inhibitor, single point] |
| CCC(CC)C(=O)Nc1cc(C(=O)NCCc2ccccc2)ccc1Cl | inactive: 25.9% | – |
| C=CCN1C(=O)CSc2ccc(C(=O)NCCC3=CCCCC3)cc21 | – | active: 12.6 µM |
| COc1ccc(CNC(=O)C2CSC(=O)C2)cc1 (centres undefined) | inactive: 4.13% | – |
| COC(=O)Sc1nnc(-c2ccc(Br)cc2)o1 | – | active: 8.91 µM |
| COc1cc(OC)cc(C(=O)N2CCN(S(C)(=O)=O)CC2)c1 | – | inconclusive [inhibitor, single point] |
| COCCn1c(=O)c(-c2cccs2)nc2cnc(Oc3ccc(OC)cc3)nc21 | – | inconclusive [inhibitor, partial curve] |

Source: PubChem BioAssay AID1030 (National Center for Advancing Translational Sciences (NCATS), 2008)
